The subject of test [1] is primary mouse cortical neurons. The experiment in a line: Aβ42 neurotoxicity: LDH assay and cleaved caspase-3 western blot. As to conditions: peptide alone or non-annealed assemblies; LDH 24 h and 48 h, caspase-3 12 h. On the technique in general: In western blotting, separated proteins are transferred to a membrane and probed.
The target in test [2] is T1, Aβ42 (Homo sapiens, UniProt P05067).
T1 construct: incubated at 37° C. with monomeric Aβ42
The experiment in a line: morphology of aggregated Aβ42 by negatively stained TEM. It counts as biochemical. As to conditions: 16 hours at 37° C.; peptide alone, PA alone or non-annealed co-assemblies. As to the method: FIG. 22. Representative negative staining TEM images of Aβ42 incubated under 37° C. for 16 hours without or with PA or P4 alone, P4/PA co-assemblies at non-annealed and annealed states. Scale bar is 100 nm.
To characterize the morphology of Aβ42 aggregated in the presence of P4/PA co-assemblies, monomeric Aβ42 was incubated by itself, with P4 alone, with PA alone, or with P4/PA co-assemblies for 16 hours at 37° C., and the resulting solutions were imaged by negatively stained TEM (FIG. 22).

The target in test [3] is T1, Aβ42. Put plainly: Aβ42 aggregation monitored by thioflavin T (ThT) fluorescence assay. It counts as biochemical. As to conditions: total 30 μM, 37° C. The protocol: FIG. 21. Aβ42 aggregation kinetics monitored by ThT fluorescence at 37° C. for 12 hours. Incubation starts with 10 μM Aβ42 and aged (FIG. 21A) or annealed (FIG. 21B) PA solution at different concentrations.

Test [4] addresses T2, peptide amphiphile C16-V3A3E3 (N-palmitoyl group conjugated to V3A3E3) (SMILES …(=O)N[C@H](C(=O)N[C@H](C(=O)N[C@H](C(=O)N[C@@H](C)C(=O)N[C@@H](C)C(=O)N[C@@H](C)C(=O)N[C@@H](CCC(=O)O)C(=O)N[C@@H](CCC(=O)O)C(=O)N[C@@H](CCC(=O)O)C(N)=O)C(C)C)C(C)C)C(C)C).
T2 construct: Self-assembles into nanofilaments or nanoribbons, so in the assays it is a supramolecular assembly, annealed or non-annealed, and not a monomer; also called E3 PA
T2 peptide: Palmitoyl-VVVAAAEEE-NH2
The experiment in a line: fluorescence anisotropy of TAMRA-conjugated peptide, non-annealed peptide/PA co-assemblies against peptide alone.

*: point of attachment. Palmitoyl = CCCCCCCCCCCCCCCC(=O)*

“Ac-LPFFD-NH2 [P4, Ac-LPFFD (SEQ ID NO: 45)-NH2, reference compound]”: in test [1], the “cell death / neurotoxicity in the presence of Aβ42 (LDH, cleaved caspase-3)” value is “decreased cell death compared to Aβ42”. In addition, the “morphology of Aβ42 aggregated in the presence of the sample” value on Aβ42 [2] is “mostly micelles and very few fibrils of reduced length”.
Regarding “C16-V3A3E3 (SEQ ID NO: 47) (Palmitoyl-VVVAAAEEE-NH2) [peptide amphiphile composed of N-palmitoyl group conjugated to V3A3E3]”, in the test with Aβ42 [2], the “morphology of Aβ42 aggregated in the presence of the sample” value was “a mixture of micelles and fibrils that were polydisperse in width”. Besides, the “inhibition of Aβ42 β-sheet aggregation (reduced ThT signal relative to Aβ42 alone)” value with Aβ42 [3] (annealed) stood at 34%; with Aβ42 [3] (non-annealed (without annealing)), 22%.

B1: free peptide P1 (V3A3E3) (peptide)
peptide: Ac-VVVAAAEEE-NH2
On to B1, for which the binding result in test [4] is “binds”.

These data come from US20230287045A1, “METHODS FOR ASSEMBLING PEPTIDES INTO PEPTIDE AMPHIPHILE NANOFIBERS” (Northwestern University, priority 2020, published 2023).
